# Reference: the supplement of paper PMC8728848
# Some of the results follow.
# Columns and labels:
# Test in all cases: glycan array binding signal (z-score within array); higher = stronger binding
# Details in all cases: glycan notation: IUPAC condensed, linker removed
# [1] = target: Gal(b1-3)GlcNAc(b1-2)Man(a1-3)[Gal(b1-3)GlcNAc(b1-2)Man(a1-6)]Man(b1-4)GlcNAc(b1-4)GlcNAc
# In short: (§1)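 The binding signal is a Z-score computed within each array and averaged over linkers. Arrays of the same protein sequence at different concentrations or buffers were also averaged together. Data originate from 3228 arrays in the Consortium for Functional Glycomics database, kept only where the protein sequence was available.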
# [2] = target: Gal(b1-3)GlcNAc(b1-2)Man(a1-3)[Gal(b1-3)GlcNAc(b1-2)Man(a1-6)]Man(b1-4)GlcNAc(b1-4)[Fuc(a1-6)]GlcNAc
# In short: as §1
# [3] = target: Gal(b1-3)GlcNAc(b1-2)Man(a1-3)[GlcNAc(b1-4)][Gal(b1-3)GlcNAc(b1-2)Man(a1-6)]Man(b1-4)GlcNAc(b1-4)GlcNAc
# In short: as §1
# [4] = target: Gal(b1-3)GlcNAc(b1-2)[Gal(b1-3)GlcNAc(b1-6)]Man(a1-6)[Gal(b1-3)GlcNAc(b1-2)Man(a1-3)]Man(b1-4)GlcNAc(b1-4)GlcNAc
# In short: as §1
# [5] = target: Gal(b1-3)GlcNAc(b1-3)Gal(b1-3)GlcNAc
# In short: as §1
# [6] = target: Gal(b1-3)GlcNAc(b1-3)Gal(b1-4)Glc
# In short: as §1
# [7] = target: Gal(b1-3)GlcNAc(b1-3)Gal(b1-4)GlcNAc
# In short: as §1
# [8] = target: Gal(b1-3)GlcNAc(b1-3)Gal(b1-4)GlcNAc(b1-2)Man(a1-3)[Gal(b1-3)GlcNAc(b1-3)Gal(b1-4)GlcNAc(b1-2)Man(a1-6)]Man(b1-4)GlcNAc(b1-4)GlcNAc
# In short: as §1
# [9] = target: Gal(b1-3)GlcNAc(b1-3)Gal(b1-4)GlcNAc(b1-2)[Gal(b1-3)GlcNAc(b1-3)Gal(b1-4)GlcNAc(b1-6)]Man(a1-6)[Gal(b1-3)GlcNAc(b1-3)Gal(b1-4)GlcNAc(b1-2)Man(a1-3)]Man(b1-4)GlcNAc(b1-4)[Fuc(a1-6)]GlcNAc
# In short: as §1
# [10] = target: Gal(b1-3)GlcNAc(b1-3)Gal(b1-4)GlcNAc(b1-3)Gal(b1-4)GlcNAc(b1-2)[Gal(b1-3)GlcNAc(b1-3)Gal(b1-4)GlcNAc(b1-3)Gal(b1-4)GlcNAc(b1-6)]Man(a1-6)[Gal(b1-3)GlcNAc(b1-3)Gal(b1-4)GlcNAc(b1-3)Gal(b1-4)GlcNAc(b1-2)Man(a1-3)]Man(b1-4)GlcNAc(b1-4)[Fuc(a1-6)]GlcNAc
# In short: as §1
# [11] = target: Gal(b1-3)GlcNAc(b1-3)Gal(b1-4)GlcNAc(b1-6)[Gal(b1-3)GlcNAc(b1-3)]Gal(b1-4)Glc
# In short: as §1
# [12] = target: Gal(b1-3)GlcNAc(b1-3)Gal(b1-4)[Fuc(a1-3)]GlcNAc
# In short: as §1
# [13] = target: Gal(b1-3)GlcNAc(b1-3)Gal(b1-4)[Fuc(a1-3)]GlcNAc(b1-6)[Gal(b1-3)GlcNAc(b1-3)]Gal(b1-4)Glc
# In short: as §1
# [14] = target: Gal(b1-3)GlcNAc(b1-3)GalNAc
# In short: as §1
# [15] = target: Gal(b1-3)GlcNAc(b1-6)Gal(b1-4)GlcNAc
# In short: as §1
# [16] = target: Gal(b1-3)GlcNAc(b1-6)GalNAc
# In short: as §1
# [17] = target: Gal(b1-3)GlcNAc(b1-6)[Gal(b1-3)]GalNAc
# In short: as §1
# [18] = target: Gal(b1-3)GlcNAc6S
# In short: as §1
# [19] = target: Gal(b1-3)[Fuc(a1-4)]GlcNAc
# In short: as §1
# [20] = target: Gal(b1-3)[Fuc(a1-4)]GlcNAc(b1-2)Man
# In short: as §1
# [21] = target: Gal(b1-3)[Fuc(a1-4)]GlcNAc(b1-2)Man(a1-3)[Gal(b1-3)[Fuc(a1-4)]GlcNAc(b1-2)Man(a1-6)]Man(b1-4)GlcNAc(b1-4)[Fuc(a1-6)]GlcNAc
# In short: as §1
# [22] = target: Gal(b1-3)[Fuc(a1-4)]GlcNAc(b1-3)Gal(b1-3)[Fuc(a1-4)]GlcNAc
# In short: as §1
# [23] = target: Gal(b1-3)[Fuc(a1-4)]GlcNAc(b1-3)Gal(b1-4)[Fuc(a1-3)]GlcNAc
# In short: as §1
# [24] = target: Gal(b1-3)[Fuc(a1-4)]GlcNAc(b1-6)GalNAc
# In short: as §1
# [25] = target: Gal(b1-3)[GlcNAc(b1-6)]GalNAc
# In short: as §1
# [26] = target: Gal(b1-3)[Neu5Ac(a2-6)]GalNAc
# In short: as §1
# [27] = target: Gal(b1-3)[Neu5Ac(a2-6)]GlcNAc(b1-4)Gal(b1-4)Glc
# In short: as §1
# [28] = target: Gal(b1-3)[Neu5Ac(b2-6)]GalNAc
# In short: as §1
# [29] = target: Gal(b1-4)Gal
# In short: as §1
# [30] = target: Gal(b1-4)GalNAc(a1-3)[Fuc(a1-2)]Gal(b1-4)GlcNAc
# In short: as §1
binder,measurement,setting,value
Di AAL2 (Agrocybe aegerita) (protein) MTSNVITQDLPIPVASRGFADIVGFGLDGVVIGRNAVNLQPFLAVKNFAQNAGGWLTTKHVRLIADTTGTGKGDIVGFGNAGVYVSVNNGKNTFADPPKMVIANFGYDAGGWRVEKHLRYLADIRKIGRADIIGFGEKGVLVSRNNGGLNFGPATLVLKDFGYDAGGWRLDRHLRFLADVTGNGHLDIVGFGDKHVFISRNNGDGTFAPAKSVIDNFCIDAGGWKIGDHPRFVADLTGDGTADIIGCGKAGCWVALNNGGGVFGQVKLVINDFGTDKGWQAAKHPRFIADLTGNGRGDVVGFGNAGVYVALNNGDGTFQSAKLVLKDFGVQQGWTVSKHRRFVVDLTGDGCADIIGFGEKETLVSYNDGKGNFGPVKALTNDFSFSGGKWAPETTVCWMANLDSSRHPAPAPMTSNVITQDLPIPVASRGFADIVGFGLDGVVIGRNAVNLQPFLAVKNFAQNAGGWLTTKHVRLIADTTGTGKGDIVGFGNAGVYVSVNNGKNTFADPPKMVIANFGYDAGGWRVEKHLRYLADIRKIGRADIIGFGEKGVLVSRNNGGLNFGPATLVLKDFGYDAGGWRLDRHLRFLADVTGNGHLDIVGFGDKHVFISRNNGDGTFAPAKSVIDNFCIDAGGWKIGDHPRFVADLTGDGTADIIGCGKAGCWVALNNGGGVFGQVKLVINDFGTDKGWQAAKHPRFIADLTGNGRGDVVGFGNAGVYVALNNGDGTFQSAKLVLKDFGVQQGWTVSKHRRFVVDLTGDGCADIIGFGEKETLVSYNDGKGNFGPVKALTNDFSFSGGKWAPETTVCWMANLDSSRH,glycan array binding signal (z-score),[1],-0.321
same,glycan array binding signal (z-score),[2],-0.339
same,glycan array binding signal (z-score),[3],-0.299
same,glycan array binding signal (z-score),[4],-0.331
same,glycan array binding signal (z-score),[5],-0.326
same,glycan array binding signal (z-score),[6],-0.32
same,glycan array binding signal (z-score),[7],-0.321
same,glycan array binding signal (z-score),[8],-0.258
same,glycan array binding signal (z-score),[9],-0.275
same,glycan array binding signal (z-score),[10],-0.015
same,glycan array binding signal (z-score),[11],-0.321
same,glycan array binding signal (z-score),[12],-0.321
same,glycan array binding signal (z-score),[13],-0.334
same,glycan array binding signal (z-score),[14],-0.327
same,glycan array binding signal (z-score),[15],-0.333
same,glycan array binding signal (z-score),[16],-0.324
same,glycan array binding signal (z-score),[17],-0.313
same,glycan array binding signal (z-score),[18],-0.322
same,glycan array binding signal (z-score),[19],-0.336
same,glycan array binding signal (z-score),[20],-0.229
same,glycan array binding signal (z-score),[21],-0.225
same,glycan array binding signal (z-score),[22],-0.31
same,glycan array binding signal (z-score),[23],-0.331
same,glycan array binding signal (z-score),[24],-0.309
same,glycan array binding signal (z-score),[25],0.1
same,glycan array binding signal (z-score),[26],-0.293
same,glycan array binding signal (z-score),[27],-0.228
same,glycan array binding signal (z-score),[28],-0.329
same,glycan array binding signal (z-score),[29],-0.327
same,glycan array binding signal (z-score),[30],-0.306
